From US10300036B2, “Compositions and methods for treating and preventing lung injury” (ARIZONA BOARD OF REGENTS on behalf of THE UNIVERSITY OF …, priority 2015, dated 2019)

Tests used:
[1] = test system: immortalized normal bronchial epithelial cells (BEAS-2B); experiment: MTT cell viability, BEAS-2B; assay type: cell-based; conditions: 48 h, doses 0.625-160 μM
Experimental: (§1) Bixin toxicity was measured by functional impairment of the mitochondria using 3-(4,5-dimethylthiazol-2-yl)-2,5-diphenyltetrazolium bromide (MTT) (Sigma). Cells (1×10^4) were seeded in a 96-well plate; 24 h later the cells were treated with the indicated doses of bixin for 48 h. 20 μL of 2 mg/mL MTT were directly added to the cells which were then incubated at 37° C. for 2 h. 100 μl of isopropanol/HCl were added to each well and the plate was shaken at room temperature (RT). Absorbance was measured at 570 nm using the Synergy 2 Multi-Mode Microplate Reader (Biotek).
(§2) Based on the chemical structure of bixin (FIG. 1a), it was investigated if bixin was able to induce the Nrf2 signaling pathway in lung cells. An MTT assay was first employed to determine bixin cytotoxicity in cells treated for 48 h with doses ranging from 0.625-160 μM.

[2] = test system: NRF2; experiment: NRF2 protein half-life (cycloheximide chase, immunoblot) in H1299 cells; assay type: cell-based, human; conditions: H1299, bixin 4 h then cycloheximide; untreated cells 19.4 min
[3] = test system: NRF2; experiment: Indirect immunofluorescence of NRF2 in H1299 cells; assay type: cell-based, human; conditions: H1299, 40 μM, indicated time points
Experimental: H1299 cells were seeded on glass cover slips, 24 h were treated with bixin (40 μM) for the indicated time points. Cells were fixed with chilled methanol and incubated with anti-NRF2 antibody, then with an Alexa Fluor 488-conjugated secondary antibody. Nuclei were counterstained with DAPI. Images were obtained using a Zeiss Observer.Z1 microscope with the Slidebook 5.0 software (Intelligent Imaging Innovations).

[4] = test system: NRF2 signaling pathway; experiment: Pulmonary NRF2 signaling pathway activation after IP injection (IHC, immunoblot, RT-PCR of lung tissue)
[5] = test system: immortalized normal bronchial epithelial cells (HBE); experiment: MTT cell viability, HBE; assay type: cell-based; conditions: 48 h, doses 0.625-160 μM
Experimental: as §1, §2

[6] = test system: H1299 cells; experiment: MTT cell viability, H1299; assay type: cell-based, human; conditions: H1299, 48 h, doses 0.625-160 μM
Experimental: as §1, §2

[7] = MTT cell viability, HMVEC-L; assay type: cell-based; conditions: human, HMVEC-L normal lung microvascular endothelial cells, highest dose tested (range 0.625-160 μM), read-out: decrease in viability (MTT assay)
Experimental: as §1, §2

[8] = test system: ventilation-induced lung injury (VILI); conditions: for pulmonary pathological alterations caused by ventilation (HE staining): 200 mg/kg IP 72 h before
[9] = test system: normal human bronchial epithelial cells (NHBE); experiment: MTT cell viability, NHBE; assay type: cell-based; conditions: 48 h, doses 0.625-160 μM
Experimental: as §1, §2

[10] = test system: NRF2 signaling pathway; experiment: Immunoblot of NRF2 signaling pathway proteins in H1299 cells; assay type: cell-based, human
[11] = humans, post-ingestion; cited from earlier work
[12] = test system: NRF2 signaling pathway; experiment: Real-time RT-PCR of NRF2 pathway mRNA in H1299 cells; assay type: cell-based, human; conditions: H1299, 40 μM, 4 or 16 h
[13] = test system: NF-κB pathway (P65, p-P65); experiment: p-P65 immunoblot of lung tissue in ventilated mice; assay type: in vivo; conditions: bixin pretreatment 200 mg/kg IP
[14] = only in ventilated Nrf2+/+ mice, bixin pretreatment
[15] = ventilated Nrf2+/+ mice, bixin pretreatment
[16] = ventilated Nrf2-/- mice, bixin pretreatment

COC(=O)/C=C/C(C)=C\C=C\C(C)=C\C=C\C=C(C)\C=C\C=C(C)\C=C\C(=O)O [bixin, Bixin]
cytotoxicity (MTT assay) [1]: no cytoxicity was found at any of the doses tested
half-life of NRF2 after bixin treatment [2]: 28.9 min
cytoplasmic and nuclear accumulation of NRF2 [3]: increased cytoplasmic and nuclear accumulation of NRF2
lung mRNA levels of Hmox1 and Gclm ([4]; Nrf2+/+ mice (not Nrf2-/-), bixin, ventilation or the combination): only induced
NRF2 pathway in lungs (IHC) ([4]; Nrf2+/+ mice, bixin 200 mg/kg IP 72 h before 4 h ventilation): also activated
KEAP1 in lung total protein (immunoblot) ([4]; Nrf2+/+ mice, bixin alone or combined with ventilation): without affecting KEAP1
lung mRNA levels of Keap1 ([4]; mice, 200 mg/kg IP): no effects
lung mRNA levels of Nrf2 ([4]; mice, treatment groups): did not increase
cytotoxicity (MTT assay) [5]: no cytoxicity was found at any of the doses tested
cytotoxicity (MTT assay) [6]: no cytoxicity was found at any of the doses tested
cytotoxicity at 48 h, 160 μM [7]: 20%
total BAL protein ([8]; Nrf2+/+ mice following high tidal volume ventilation): significantly decreased
8-oxo-dG staining (oxidative DNA damage) in lungs ([8]; mouse, in vivo): did not have any effect
cytotoxicity / oxidative DNA damage at the doses used in vivo ([8]; mouse, in vivo): did not elicit any cytotoxicity or generate oxidative DNA damage
lung morphology (HE staining) ([8]; mouse, in vivo): did not affect the lung morphology
total BAL cell number or ratio of neutrophils ([8]; mouse, in vivo): did not affect
total BAL protein ([8]; mouse, in vivo): did not affect
IL6 in BAL fluid (ELISA) [8, 14]: reduced
TNFα in BAL fluid (ELISA) [8, 14]: reduced
pulmonary pathological alterations caused by ventilation (HE staining) ([8]; ventilated Nrf2+/+ mice): dramatically attenuated
8-oxo-dG staining in lungs [8, 15]: significantly suppressed
ventilation-induced neutrophil infiltration (total cells and ratio of neutrophils) [8, 15]: decreased
pulmonary pathological alterations caused by ventilation (HE staining) ([8]; ventilated Nrf2-/- mice): no improvement was observed
8-oxo-dG staining in lungs [8, 16]: but not
ventilation-induced neutrophil infiltration (total cells and ratio of neutrophils) [8, 16]: but not
survival ([8]; ventilation treatment and/or bixin injections (200 mg/kg IP)): All mice survived
cytotoxicity (MTT assay) [9]: no cytotoxicity was observed at any of the doses tested
KEAP1 protein levels over time ([10]; H1299, 40 μM, time course): No change was observed
earliest time of significant induction of NRF2 protein levels ([10]; H1299, 40 μM, time course): 2 h
time of highest NRF2 protein levels ([10]; H1299, 40 μM, time course): 2 to 4 h
time of return of NRF2 protein levels to basal levels ([10]; H1299, 40 μM, time course): ≤ 24 h
GCLM protein levels over time ([10]; H1299, 40 μM, time course up to 48 h): increased at 8 h and peaked between 12 and 24 h, with persistent elevation up to 48 h
KEAP1 expression levels ([10]; H1299, 10, 20 and 40 μM, 4 h and 16 h): no effects were observed
induction of NRF2 protein levels ([10]; H1299, 10, 20 and 40 μM, 4 h treatment): dose-response effect
induction of downstream targets HO-1 and GCLM protein levels ([10]; H1299, 10, 20 and 40 μM, 16 h treatment): dose-response effect
time of maximum bixin concentration in blood plasma [11]: 2 h
mRNA levels of NRF2 and KEAP1 [12]: did not affect
mRNA levels of both HMOXJ and GCLM [12]: increase significantly
p-P65 accumulation in lungs ([13]; ventilated Nrf2+/+ mice): decreased p-P65 accumulation
p-P65 accumulation in lungs ([13]; ventilated Nrf2-/- mice): very minimal effects

Read-outs that look alike come from different tables or passages of the source.
